The campaign covered roughly 420,000 compounds. About 50,000 (12%) were called active. Inconclusive results, whose numbers are uncertain, are shown with a selection of clear calls. Calls come from the whole dose curve; as a rule, active = well fitted inhibition curve with a large enough effect; inconclusive = small, poorly fitted or top-dose-only effect; inactive = flat fitted curve, though single readings scatter. Potencies of inconclusive entries are left out as doubtful fits.
Test: qHTS for Inhibitors of human tyrosyl-DNA phosphodiesterase 1 (TDP1): qHTS in cells in presence of CPT; note: nearly all actives have a fitted effect of over 55% in size
Details: chicken DT40 Tdp1-/-;hTDP1 cells + 20 nM CPT, ATP luminescence, 48 h; activity change, negative = growth inhibition: at 46.2 µM (top of the series)
Method in brief: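 Chicken DT40 Tdp1-/- cells complemented with human TDP1, 400 cells/well, exposed to compounds plus 20 nM camptothecin for at least 48 h at 37 C; viability read as ATP content by CellTiter-Glo luminescence.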
In the case of CCOC(=O)N1CCN(S(=O)(=O)c2ccc(OC)c(Cl)c2)CC1, the Potency is reported as “inactive”.
For CCOC(=O)C1=C(CCl)NC(=O)NC1c1ccc2c(c1)OCO2 (configuration not stated), the Potency was active: 14.6 µM.
For Cc1cccc(NC(=O)Cn2nnc(C(=O)NCc3cccs3)c2N)c1, the Potency was “inactive”.
For O=C(CNC(=O)c1ccc(Br)o1)NCc1ccc(Cl)cc1, the Potency was inconclusive [inhibitor, single point].
In the case of Cc1ccc(C)c(N2CCN(C(=O)CCc3nc(-c4ccccc4Br)no3)CC2)c1, the Potency is reported as inconclusive [inhibitor, partial curve].
In the case of O=C(NCCS(=O)(=O)N1CCN(Cc2ccccc2)CC1)c1ccc(F)cc1, the Potency is reported as inconclusive [inhibitor, single point].
With COc1cc(/C=N/Nc2nc3ccccc3[nH]2)cc(OC)c1O the Potency was active: 4.11 µM.
For CN(C)S(=O)(=O)c1cccc(COC(=O)c2cc([N+](=O)[O-])ccc2N2CCOCC2)c1, the Potency was inconclusive [inhibitor, single point].
With O=C(Nc1ccc(-c2nc3ccccc3o2)cc1)c1cc(-n2cnnc2)ccc1Cl the Potency was active: 18.4 µM.
For COc1ccc(NC(=S)NC2CCN(Cc3ccccc3)CC2)cc1OC, the Potency was “inactive”.
In the case of COc1cccc(C(NC(C)=O)c2nc(-c3cccnc3)cs2)c1 (configuration not stated), the Potency is reported as “inactive”.
For COc1ccccc1CN1CCCC2(CCN(C(=O)c3cc(C(F)(F)F)cc(C(F)(F)F)c3)CC2)C1, the Potency was “inactive”.
In the case of CC(=O)Nc1cc(-c2ccc(Cl)cc2)[nH]n1, the Potency is reported as inconclusive [inhibitor, partial curve, poor fit].
For COc1ccc(CC(=O)Nc2cc(Cl)ccc2N2CCCC2)cc1, the Potency was inconclusive [inhibitor, single point].
In the case of Cc1cc(C(=O)N2CCc3ccccc32)n(-c2ccccc2)n1, the Potency is reported as inconclusive [inhibitor, single point].
For CCNC(=O)C1CCCN(C(=O)c2cccc(OC(F)(F)F)c2)CC1 (configuration not stated), the Potency was inconclusive [inhibitor, single point].
In the case of Cc1ccccc1C(=O)NCc1nc(-c2ccc(Cl)cc2)no1, the Potency is reported as inconclusive [inhibitor, single point].
In the case of Cc1ccc(CN2C[C@H](Sc3ccccn3)C[C@H]2C(=O)Nc2ccc3sc(C)nc3c2)c(C)c1, the activity change, negative = growth inhibition is reported as inactive: 20.1% [at 9.04 µM].
With CCCC(C(=O)NC1CCCC1)N(C(=O)Cn1nnc(-c2ccc(C)o2)n1)c1cccc(O)c1 (configuration not stated) the Potency was “inactive”.
In the case of CC(C)c1ccc(CN2CCC(C)(Oc3ccc(Cl)cc3)C2)cc1 (configuration not stated), the Potency is reported as inconclusive [inhibitor, single point].
In the case of COc1ccc(Cl)cc1NC(=O)CCn1c(=O)c2cccn2c2ccccc21, the Potency is reported as active: 20.6 µM.
For COc1ccc(C(=O)Nc2ccc(Cl)c(S(=O)(=O)Nc3ccccc3OC)c2)cc1, the Potency was inconclusive [inhibitor, single point].
In the case of Cc1ccc(NS(=O)(=O)c2cc3c4c(cccc4c2)C(=O)NC3=O)cc1, the Potency is reported as inconclusive [inhibitor, full curve].
In the case of O=C(Nc1cccc(Oc2ccccc2)c1)c1ccc(-n2cncn2)c2ccoc12, the Potency is reported as active: 18.4 µM.
For CCCNC(=O)C1(C)CCN(C(=O)Cc2ccc(OC)c(OC)c2)C1 (configuration not stated), the Potency was “inactive”.
For O=c1c2ccc([N+](=O)[O-])cc2ncn1CCOc1cccc(Br)c1, the Potency was inconclusive [inhibitor, single point].
In the case of Cc1ccc(N2CCN(S(=O)(=O)N3CCCCC3)CC2)c(C)c1, the Potency is reported as inconclusive [inhibitor, single point].
In the case of COc1ccc(C(O)(CCN2CCCCC2)C2CCCCC2)cc1 (configuration not stated), the Potency is reported as inconclusive [inhibitor, single point].
In the case of Cc1cccc(NC(=S)N2CCN(C(=O)C3CCCO3)CC2)c1 (configuration not stated), the Potency is reported as “inactive”.
In the case of C#CCOc1c(Cl)cc(/C=C2/C(=O)ON=C2C)cc1OC, the Potency is reported as inconclusive [inhibitor, single point].
For Cn1nc(-c2ccccc2)c(C#N)c1Sc1cccc(Cl)c1, the Potency was inconclusive [inhibitor, partial curve].
In the case of Cc1oc(-c2ccc(Cl)cc2)nc1CS(=O)CC(=O)NCCc1ccccc1 (configuration not stated), the Potency is reported as inconclusive [inhibitor, single point].
With Nc1[nH]c(C(=O)c2ccccc2)c(-c2ccccc2C(F)(F)F)c1C(=O)c1cccs1 the Potency was active: 23.1 µM.
For O=C(c1cc2ccccc2oc1=O)N(Cc1cccs1)Cc1ccccc1Cl, the Potency was inconclusive [inhibitor, single point].
In the case of O=C(Cc1coc2cc(O)ccc12)N1CCN(S(=O)(=O)c2ccc(Br)cc2)CC1, the Potency is reported as inconclusive [inhibitor, single point].
For COc1ccc(N2C(=O)CSC23C(=O)N(Cc2cccc(C(F)(F)F)c2)c2ccccc23)cc1 (configuration not stated), the Potency was inconclusive [inhibitor, single point].
With CN(C)c1ncc2nc(-c3ccc(Cl)cc3)c(=O)n(Cc3ccc(F)cc3)c2n1 the Potency was “inactive”.
In the case of COc1cc(C(O)c2nc(-c3ccccc3C)cs2)ccc1F (configuration not stated), the Potency is reported as inconclusive [inhibitor, single point].
With Cc1ccc(C)c(S(=O)(=O)Nc2ccc(O)cc2)c1 the Potency was inconclusive [inhibitor, partial curve].
In the case of CCOc1ccc2oc(=O)cc(CN3CCN(Cc4ccc(C)cc4)CC3)c2c1, the Potency is reported as active: 23.1 µM.
For Cc1ncc(CO)c2c1Oc1nc(-c3ccccc3)nc(SCC(=O)N3CCOCC3)c1C2, the Potency was active: 18.4 µM.
With CCCn1cc(S(=O)(=O)CC(=O)N2CCc3ccccc32)c2ccccc21 the Potency was inconclusive [inhibitor, single point].
In the case of COc1c(C)cc(C(O)c2ncc(-c3cccc(C(F)(F)F)c3)[nH]2)cc1C (configuration not stated), the Potency is reported as active: 23.1 µM.
In the case of Cc1cc(OCc2cc(C(=O)NC(C)c3c(C)nn(C)c3C)no2)cc(C)c1Cl (configuration not stated), the Potency is reported as inconclusive [inhibitor, single point].
With Cn1c(=O)[nH]c(=O)c2c1[nH]c(=S)n2Cc1ccc(Cl)cc1 the Potency was “inactive”.
In the case of CC(C)(C)c1ccc(S(=O)(=O)NCc2ccccn2)cc1, the Potency is reported as “inactive”.
For O=C(NCCc1ccccc1)c1cccc2c1C(=O)N(C1CCCCC1)C2, the Potency was inconclusive [inhibitor, single point].
In the case of COc1ccccc1OCC(=O)N(Cc1cccs1)C1CCS(=O)(=O)C1 (configuration not stated), the Potency is reported as “inactive”.
With CC(C)C(NC(=O)c1c(F)cccc1F)C(=O)N1CCN(S(=O)(=O)/C=C/c2ccccc2)CC1 (configuration not stated) the Potency was “inactive”.
In the case of CN(CCc1ccccn1)C(=O)c1nn2c(C(F)(F)F)cc(-c3ccco3)nc2c1Cl, the Potency is reported as inconclusive [inhibitor, single point].
For Cc1cnc(CNC(=O)c2ccc3sc([C@H]4C[C@H](O)[C@@H](CO)O4)nc3c2)cn1, the activity change, negative = growth inhibition was inconclusive: -14.8% [inhibitor].
For Cc1cc2oc(C(=O)NCC(c3ccco3)N3CCCC3)c(C)c2cc1C (configuration not stated), the Potency was inconclusive [inhibitor, single point].
For Cn1c(NC(=O)CCC2CCCCC2)cc(=O)n(C)c1=O, the Potency was inconclusive [inhibitor, partial curve].
With CCOC(=O)c1ccccc1NC1c2ccccc2C(=O)N1C1CCN(C(=O)OCC)CC1 (configuration not stated) the Potency was inconclusive [inhibitor, single point].
In the case of Cn1c(=O)n(C)c2cc(N3CCCC3)c(NC(=O)c3cccc(F)c3)cc21, the Potency is reported as inconclusive [inhibitor, single point].
For O=S(=O)(c1ccccc1F)N1CCN(CCc2ccccc2)CC1, the Potency was “inactive”.
In the case of CCNC(=S)N(Cc1ccc(OC)cc1)C1CC(=O)N(c2ccc(OCC)cc2)C1=O (configuration not stated), the activity change, negative = growth inhibition is reported as inconclusive: -31.5% [inhibitor].
In the case of COc1ccccc1CNc1nc(-c2ccco2)nn1S(C)(=O)=O, the Potency is reported as inconclusive [inhibitor, single point].
With O=S(=O)(Nc1ccccc1)c1cccc2nonc12 the Potency was “inactive”.
With CC(C)C[C@H](NC(=O)Nc1ccc2c(c1)OCCO2)C(=O)O the Potency was “inactive”.
With COC(=O)c1ccc(-n2c(C)cc(C(=O)COC(=O)C3=COCCO3)c2C)cc1 the Potency was “inactive”.
With COc1ccccc1-c1nc(C#N)c(N2CCN(Cc3ccccc3)CC2)o1 the Potency was inconclusive [inhibitor, single point].
In the case of Cc1ccc(C(=O)NN(CCC(=O)NC(C)(C)C)C2=NS(=O)(=O)c3ccccc32)cc1, the Potency is reported as “inactive”.
In the case of CCOc1ccccc1CNC(=O)C1CCN(S(=O)(=O)N2CCC(C)CC2)CC1, the Potency is reported as inconclusive [inhibitor, single point].
With Fc1ccc(COc2ccccc2C(=S)N2CCCC2)cc1 the Potency was inconclusive [inhibitor, single point].
With CCc1nc2ccccc2n1CCC(C)C the Potency was active: 25.9 µM.
For CC(Oc1cccc(Cl)c1)C(=O)N(C)CC(=O)Nc1ccc(N2CCOCC2)cc1 (configuration not stated), the Potency was active: 13 µM.
With Cc1ccc(OCCN2CCN(C(=O)CCC(=O)Nc3nnc(C(C)C)s3)CC2)cc1 the Potency was inconclusive [inhibitor, single point].
For O=C(C#Cc1ccccc1)c1ccccc1, the Potency was active: 0.731 µM.
In the case of COc1cc(OC)c(NS(=O)(=O)c2c(C(=O)N3CCCCCC3)c(C)n(C)c2C)cc1Cl, the Potency is reported as inconclusive [inhibitor, single point].
For O=C(OCn1ncc(Br)c(Br)c1=O)c1ccc(F)cc1, the Potency was active: 1.03 µM.
For COc1ccc(-n2cc(-c3ccccc3)nc2SCC(=O)Nc2ccccc2C)cc1, the Potency was inconclusive [inhibitor, single point].

— PubChem BioAssay AID686979 (National Center for Advancing Translational Sciences (NCATS), 2013)
% is set by controls: 0 for no effect and ±100 for the full control effect; potency is the fitted concentration of half-maximal effect; tags give direction and shape of the fitted curve.
